Laboratory results from publication PMC12022045 (Nature Communications, 2025).

Biological target: T1, His-MED15 (human, UniProt Q96RN5-2 1-748)
T1 sequence (looked up): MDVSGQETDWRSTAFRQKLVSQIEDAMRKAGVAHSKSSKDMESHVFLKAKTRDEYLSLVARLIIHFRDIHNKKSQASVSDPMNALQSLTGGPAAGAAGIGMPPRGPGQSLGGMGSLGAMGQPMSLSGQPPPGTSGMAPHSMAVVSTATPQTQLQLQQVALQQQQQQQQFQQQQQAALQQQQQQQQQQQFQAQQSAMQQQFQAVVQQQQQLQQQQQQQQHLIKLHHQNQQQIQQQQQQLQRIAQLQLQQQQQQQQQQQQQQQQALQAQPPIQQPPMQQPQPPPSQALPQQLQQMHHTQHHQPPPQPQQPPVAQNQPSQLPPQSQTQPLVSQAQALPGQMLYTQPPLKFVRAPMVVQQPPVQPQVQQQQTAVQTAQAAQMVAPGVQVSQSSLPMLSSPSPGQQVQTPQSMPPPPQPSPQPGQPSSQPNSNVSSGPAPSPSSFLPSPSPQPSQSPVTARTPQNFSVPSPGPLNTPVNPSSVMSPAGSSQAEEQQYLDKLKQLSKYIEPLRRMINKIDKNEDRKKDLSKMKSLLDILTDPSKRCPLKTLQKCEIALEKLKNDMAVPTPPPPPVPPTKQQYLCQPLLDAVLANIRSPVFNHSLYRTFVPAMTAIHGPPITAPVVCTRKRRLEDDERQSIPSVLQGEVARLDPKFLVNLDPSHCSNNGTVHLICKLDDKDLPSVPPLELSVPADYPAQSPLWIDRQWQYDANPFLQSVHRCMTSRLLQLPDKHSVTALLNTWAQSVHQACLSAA
Assay: SPR

B1: His-YAP (natural protein)
chain: not shown
Kd: 27.5 ± 14.8 nM
